For seven molecules, binding results are on record in article PMC8305168.

The chains behind the UniProt entries cited, without tags or fusion partners.
UniProt Q3U9G9: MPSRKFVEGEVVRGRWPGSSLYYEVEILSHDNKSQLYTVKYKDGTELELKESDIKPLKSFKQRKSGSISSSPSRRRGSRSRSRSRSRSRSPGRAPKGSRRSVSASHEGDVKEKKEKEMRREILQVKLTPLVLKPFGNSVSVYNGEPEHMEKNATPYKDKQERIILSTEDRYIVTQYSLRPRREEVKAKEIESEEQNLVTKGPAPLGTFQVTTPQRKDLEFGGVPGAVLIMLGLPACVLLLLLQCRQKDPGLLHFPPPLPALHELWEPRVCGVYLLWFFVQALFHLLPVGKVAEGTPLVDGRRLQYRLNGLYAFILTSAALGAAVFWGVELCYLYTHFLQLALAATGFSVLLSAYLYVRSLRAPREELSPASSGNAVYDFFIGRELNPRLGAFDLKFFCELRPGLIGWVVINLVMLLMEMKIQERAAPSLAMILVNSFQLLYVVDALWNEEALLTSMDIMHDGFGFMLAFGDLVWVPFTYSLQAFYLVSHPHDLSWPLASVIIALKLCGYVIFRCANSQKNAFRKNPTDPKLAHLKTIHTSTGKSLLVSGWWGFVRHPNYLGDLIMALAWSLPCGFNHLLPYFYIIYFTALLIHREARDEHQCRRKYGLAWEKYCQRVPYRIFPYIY

Sequences and labels used below:
T1: METTL16 methyltransferase (methyltransferase-like 16) (mouse (endogenous in MEFs)) (UniProt Q9CQG2)
T1 sequence: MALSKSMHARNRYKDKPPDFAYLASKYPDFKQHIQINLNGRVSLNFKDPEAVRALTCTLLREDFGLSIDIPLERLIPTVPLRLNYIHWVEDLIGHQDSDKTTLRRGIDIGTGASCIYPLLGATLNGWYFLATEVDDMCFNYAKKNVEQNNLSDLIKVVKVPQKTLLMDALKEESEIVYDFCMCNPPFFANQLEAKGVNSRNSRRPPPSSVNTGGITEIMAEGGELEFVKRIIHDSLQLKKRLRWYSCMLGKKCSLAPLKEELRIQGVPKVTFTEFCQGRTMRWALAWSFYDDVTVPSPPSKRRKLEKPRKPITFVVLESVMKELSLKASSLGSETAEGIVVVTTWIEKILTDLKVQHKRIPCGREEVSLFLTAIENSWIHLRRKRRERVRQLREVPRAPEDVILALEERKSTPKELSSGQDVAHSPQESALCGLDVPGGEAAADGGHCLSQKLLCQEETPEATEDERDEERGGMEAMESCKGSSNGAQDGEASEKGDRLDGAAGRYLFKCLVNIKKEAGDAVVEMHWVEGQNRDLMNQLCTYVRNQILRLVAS

B1: TCOF (protein, UniProt O08784 1-1320)
chain: MAEARKRRELLPLIYHHLLQAGYVRAAREVKEQSGQKSFLTQPVTLLDIYTHWQQTSELGQKQKAEDDETLQAKKSRVSDPVSSSESSDQEKEEEAATERAKATPRPTPVNSATAALPSKVKEKGKTKTANKTVNSVSHPGSGKTVVHLLSGKSPKKSAEPLANTVLASETEEEGNAQALGPTAKSGTVSAGQGSSSSEDSSISSDETDVEVKSPAKPAQAKASAAPAKDPPARTAPGPTKLGNVAPTPAKPARAAAAAAAAAVAAAAAAAAEESESSEEDSDSEDEAPAGLPSQVKASGKGPHVRADSVSAKGISGKGPILATPGKTGPAATQAKAERPEKDSETSSEDDSDSEDEMPVTVNTPQARTSGKSPRARGTSAPAKESSQKGAPAVTPGKARPVAAQAGKPEAKSSEESESDSGETPAAATLTTSPAKVKPLGKSSQVRPVSTVTPGSSGKGANLPCPGKVGSAALRVQMVKKEDVSESSSAELDSDGPGSPAKAKASLALPQKVRPVATQVKTDRGKGHSGSSEESSDSEEEAAPAASAAQAKPALEKQMKASSRKGTPASATGASTSSHCKAGAVTSSASLSSPALAKGTQRSDVDSSSESESEGAAPSTPRVQGKSGGKGLQGKAALGQGVAPVHTQKTGPSVKAMAQEDSESLEEDSSSEEEDETPAQATPLGRLPQAKANPPPTKTPPASASGKAVAAPTKGKPPVPNSTVSARGQRSVPAAGKAGAPATQAQKGPVAGTGEDSESSSKEESDSEEETPAQIKPVGKTSQVRAASAPAKESPKKGAHPGTPGKTGSSATQAQPGKTEDSDSSSEESDSDTEMPSAQAIKSPPVSVNRNSSPAVPAPTPEGVQAVNTTKKASGTTAQSSSSESEDGDEDLIPATQPSTYALRTSVTTPAALSRAASQPSKSEQSSRMPKGKKAKAAASAQTSSAVETLPMMPPQSAPIQPKATNKLGKSKLPEKQQLAPGYPKAPRSSEDSSDTSSEDEEDAKRPQMPKSAHRLDPDPSQKETVVEETPTESSEDEMVAPSQSLLSGYMTPGLTVANSQASKATPRPDSNSLASSAPATKDNPDGKQKSKSQHAADTALPKTGRKEASSGSTPQKPKKLKKSTSSSPAPTQTLPNSITQRLLEQAWPLSEAQVQASVVKVLTELLEQERLKATEAIKESGKKSQKRKLSGDLEAGAPKNKKKKEQPVPRASAVSPEKAPMTSKAKSKLDKGSAGGKGKGSPGPQGAKEKPDGELLGIKLESGEQSDPKSKSKKKKSLKKKKDKEKKEKKKGKKSLAKDSASPIQKKKKKKKKSAEPAV
B2: Lap2α (protein, UniProt Q61033 1-693)
chain: MPEFLEDPSVLTKDKLKSELVANNVTLPAGEQRKDVYVQLYLQHLTARNRPPLAAGANSKGPPDFSSDEEREPTPVLGSGASVGRGRGAVGRKATKKTDKPRLEDKDDLDVTELSNEELLDQLVRYGVNPGPIVGTTRKLYEKKLLKLREQGTESRSSTPLPTVSSSAENTRQNGSNDSDRYSDNDEGKKKEHKKVKSARDCVPFSELASTPSGAFFQGISFPEISTRPPLGRTELQAAKKVQTTKRDPPRETCTDTALPGKGQTHKLAPGRSLFIPSESSYDRCVEKSSSPSSQREFAARLVSAAASPSLIRETTTTYSKDIVENICRGGKSRAQPLRAEEPGVSDQSVFSSEREVLQESERSQVISPPLAQAIRDYVNSLLVQGGVGSLPGTSDSVPTLDVENICKRLSQSSYQDSESLSPPRKVPRLSEKPARGGDSGSCVAFQNTPGSEHRSSFAKSVVSHSLTTLGVEVSKPPPQHDKIEASEPSFPLHESILKVVEEEWQQIDRQLPSVACRYPVSSIEAARILSVPKVDDEILGFISEATPRAATQASSTESCDKHLDLALCRSYEAAASALQIAAHTAFVAKSLQADISQAAQIINSDPSDAQQALRILNRTYDAASYLCDAAFDEVRMSACAMGSSTMGRRYLWLKDCKISPASKNKLTVAPFKGGTLFGGEVHKVIKKRGNKQ
B3: DDB2 (protein, UniProt Q99J79 1-432)
chain: MAPKKCPETQKSPDVAVLLRSKSRRGPQELEPEAKKLRVQGPVSSRTCESCCLLAELSSLQIPSRSSSIVRDLYQHKLGKATWSSLQQGLQKSFLHSLASYQVFRKAAPFDRRTTSLAWHPTHPSTLAVGSKGGDIMIWNFGIKDKPIFLKGIGAGGSITGLKFNHLNTNQFFASSMEGTTRLQDFKGNILRVYTSSNSCKVWFCSLDVSAKSRVVVTGDNMGHVILLSTDGKELWNLRMHKKKVAHVALNPCCDWLLATASIDQTVKIWDLRQIKGKDSFLYSLPHRHPVNAACFSPDGARLLTTDQNNEIRVYSASQWDSPLNLISHPHRHFQHLTPIKATWHSRHNLIVVGRYPDPNLKSCVPYELRTIDVFDGSSGKMMCQLYDPGYSGITSLNEFNPMGDTLASTMGYHILIWSQEEDGSQKDHERL
B4: NOLC1 (protein, UniProt E9Q5C9 1-702)
chain: MADTGLRRVVPSDLYPLVLRFLRDSQLSEVASKFAKATGATQQDANASSLLDIYSFWLNRSTKAPKVKLQSNGPVTKKAKKETSSSDSSEDSSEDEDKKAQGLPTQKAAAQVKRASVPQHAGKAAAKASESSSSEESSEEEEEDKKKKPVQQKAAKPQAKAVRPPAKKAESSESDSDSDSDSSSEEETPQTQKPKAAVAAKAQTKAEAKPGTPAKAQPKVANGKAAASSSSSSSSDDSEEEKKAAAPPKKTVPKKQVVAKAPVKVAAAPTQKSSSSEDSSSEEEEGQRQPMKKKAGPYSSVPPPSVPLPKKSPGTQAPKKAAAQTQPADSSDDSSDDSDSSSEEEKKPPAKTVVSKTPAKAAPVKKKAESSSDSSDSDSSEDEAPAKPVSTTKSPKPAVTPKPSAAKAVTTPKQPAGSNQKPQSRKADSSSSEEESSSSEEEEASKKSATTPKAKVTAKAAPAKQAPQAAGDSSSDSDSSSSEEEEKTPKPPAKKKAAGGAVSTPAPGKKAEAKSSSSSSSSSSEDSSEEEKKKKPKATTPKIQASKANGTPASLNGKAAKESEEEEEEEETEEKKKAAGTKPGSGKKRKQNETADEATTPQAKKVKLETPNTFPKRKKGERRASSPFRRVREEEIEVDSRVADNSFDAKRGAAGDWGERANQVLKFTKGKSFRHEKTKKKRGSYRGGSISVQVNSVKFDSE
B5: fibrillarin (enzyme, UniProt P35550 1-327)
chain: MKPGFSPRGGGFGGRGGFGDRGGRGGGRGGRGGFGGGRGGFGGGGRGRGGGGGGFRGRGGGGGRGGGFQSGGNRGRGGGRGGKRGNQSGKNVMVEPHRHEGVFICRGKEDALVTKNLVPGESVYGEKRVSISEGDDKIEYRAWNPFRSKLAAAILGGVDQIHIKPGAKVLYLGAASGTTVSHVSDIVGPDGLVYAVEFSHRSGRDLINLAKKRTNIIPVIEDARHPHKYRMLIAMVDVIFADVAQPDQTRIVALNAHTFLRNGGHFVISIKANCIDSTASAEAVFASEVKKMQQENMKPQEQLTLEPYERDHAVVVGVYRPPPKVKN

These are yes or no findings as the source states them, for the method shown. In cells and extracts the contact can be indirect. Some binding calls cover weakened binding; strength is not graded here.

In this experiment the target is T1, METTL16 methyltransferase (methyltransferase-like 16) (mouse (endogenous in MEFs)). As to the kind of experiment: co-IP; 500 μg lysate (Pierce IP Lysis Buffer) of wt MEFs or LMNA dn cells, non-irradiated or UVA-irradiated, precipitated with anti-METTL16 antibody (HPA020352) or control rabbit IgG on Catch and Release v2.0 columns, overnight at 4 °C; eluate blotted for the partners.
For the molecule “phosphorylated histone H2AX (γH2AX) (from UniProt P27661 1-143)”, the binding result is “binds”.

In the case of “Lamin B Receptor (LBR) (from UniProt Q3U9G9 1-626)”, the binding entry was “binds”.

As for B1, the binding entry was “binds”.

On to B2, for which the binding result is listed as “binds”.

For B3, the binding entry is recorded as “binds”.

With B4, the binding entry was “binds”.

As to B5, the binding result is given as “no binding”.
